Data on four molecules can be found in patent US20140212431A1 (Genentech, published 2014).

Test [1] concerns the target T1, recombinant human PCSK9 with a histidine (His)8 C-terminal tag (human, UniProt Q8NBP7 31-692, biotinylated in vitro (EZ-link Sulfo-NHS-biotinylation kit) where the assay names biotinylated PCSK9).
T1 construct: also called rPCSK9; biotinylated PCSK9
The test is described as follows: SPR (Biacore 3000), EGF-Fc captured by anti-human Fc, PCSK9 injected, 10 mM EDTA. On the technique in general: In SPR one partner is held on a chip, and binding of the other changes the refractive index at the surface.

In test [2] the target is T1, recombinant human PCSK9 with a …. Description: SPR (Biacore 3000), EGF-Fc captured by anti-human Fc, PCSK9 injected, 1 mM CaCl2.
The target is the same in test [3]. The test is described as follows: biolayer interferometry (Octet RED 384), EGF-Fc on Fc biosensor, PCSK9 0-500 nM, 1 mM CaCl2, steady state fit.
Test [4] shares this target. The test is described as follows: biolayer interferometry; end of the range tied to EGF52-Fc by Table II (900/120). Background: BLI is a label-free optical method that tracks binding on a fibre tip over time.
The target is the same in test [5]. Description: competition ELISA: Fc fusion protein mixed with biotinylated PCSK9, added to rLDLR-coated plate. For orientation: An ELISA detects its analyte on a solid surface through an enzyme-linked reagent.
Test [6] has the same target. Description: cell-based or functional assay.

T1 sequence (Q8NBP7 other isoform, or with tags, fused parts or gaps limits assumed): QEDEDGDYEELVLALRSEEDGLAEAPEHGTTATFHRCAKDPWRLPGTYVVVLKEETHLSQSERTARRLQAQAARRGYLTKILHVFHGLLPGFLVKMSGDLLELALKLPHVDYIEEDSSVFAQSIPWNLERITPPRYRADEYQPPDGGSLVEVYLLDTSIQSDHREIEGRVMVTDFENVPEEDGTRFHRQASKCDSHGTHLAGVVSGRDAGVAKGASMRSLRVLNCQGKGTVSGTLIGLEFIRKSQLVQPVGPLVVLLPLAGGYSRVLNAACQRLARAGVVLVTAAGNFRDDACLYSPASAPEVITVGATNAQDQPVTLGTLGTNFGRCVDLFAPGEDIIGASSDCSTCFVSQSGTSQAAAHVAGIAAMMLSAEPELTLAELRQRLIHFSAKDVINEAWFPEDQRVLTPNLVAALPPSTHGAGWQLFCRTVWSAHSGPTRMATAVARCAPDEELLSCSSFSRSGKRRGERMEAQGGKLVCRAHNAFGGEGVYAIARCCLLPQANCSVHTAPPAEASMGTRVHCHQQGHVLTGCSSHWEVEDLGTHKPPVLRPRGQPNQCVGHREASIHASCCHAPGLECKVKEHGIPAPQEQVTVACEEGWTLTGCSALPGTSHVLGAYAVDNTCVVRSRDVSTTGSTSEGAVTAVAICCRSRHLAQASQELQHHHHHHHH

B1: EGF59-Fc fusion protein (Fc fusion)
chain: GTNECLDNLGGCSHVCRKLKIGYECLCPDGFQLVAQRRCEGGGSGAAQVTNKTHT
modifications: The EGF(A) domain has three disulfide bonds (Cys I-III, II-IV, V-VI). In the assay the protein was a homodimer joined through the IgG1 Fc, which is not given here.
notes: not shown: Fc domain of human IgG1 (C222-K443 as printed, which is Cys226-Lys447 in EU numbering)
As usually defined, the Kd is the constant that tells how readily two partners part at equilibrium. Regarding B1, the results for the Kd in test [1], in test [2] and in test [3] were 135 nM, 111 nM and 50 nM, respectively.

B2: EGF52-Fc fusion protein (Fc fusion)
chain: GTNECLSNLGGCSHICRKLKIGYECLCPDGFQLVAQRRCEGGGSGAAQVTNKTHT
modifications: Three disulfide bonds within the EGF domain. The Fc fusion is a homodimer; one chain is given.
notes: not shown: It is probably EU C226-K447, 222 residues, following the linker's THT
Usually koff stands for a measure of how fast the partners let go of each other. One may read the kon as the rate constant with which the complex forms. In general, IC50 refers to the concentration that inhibits the measured activity by half. As for B2, the “fold increase of affinity against EGFwt-Fc” value in test [4] fell in the range of 7.5 to 33 fold. Further, in test [1], the Kd was 238 nM, the off-rate (koff) was 0.022 s⁻¹ and the on-rate (kon) amounted to 90000 M⁻¹ s⁻¹. Moreover, in test [2], the Kd came to 113 nM, the koff stood at 0.02 s⁻¹ and the kon was found to be 181000 M⁻¹ s⁻¹. Also, in test [5], the IC50 was 0.7 nM. Also, the Kd in test [3] came out at 120 nM.

B3: EGF75-Fc fusion protein (Fc fusion)
chain: GTNECLKNLGGCSHVCKKLKIGYECLCPDGFQLVAQRRCEGGGSGAAQVTNKTHT
modifications: Three disulfide bonds within the EGF domain. The Fc fusion is a homodimer; one chain is given.
notes: as for B2
With B3, the equilibrium dissociation constant (Kd) in test [1] was found to be 224 nM; in test [2], 121 nM; in test [3], 27 nM.

B4: EGF66-Fc fusion protein (Fc fusion)
chain: GTNECLANLGGCSHICRKLKIGYECLCPDGFQLVAQRRCEGGGSGAAQVTNKTHT
notes: also called EGF66-Fc (MUT); not shown: Fc domain of human IgG1 (C222-K443)
For B4, in test [6], the “EC50: concentration that restored LDLR levels on the HepG2 cell surface to 50% of control” value came to 1600 nM. In addition, the Kd in test [1] is 72 nM; in test [2], 71 nM; in test [3], 56 nM.
